# Measured values reported in PubChem BioAssay AID463173 (ICCB-Longwood Screening Facility, Harvard Medical School, 2010).
# About 4,300 (8.3%) of roughly 52,000 compounds were called active. Rule as the data show it: active = survival mostly below about 52% (no sharp cut-off); inactive = mostly above about 56%. Some of the results follow.
# Tested on: DeltatarO mutant
# Test: S. aureus survival, RN4220 and DeltatarO strains – OD600, teichoic acid synthesis inhibitors, primary screen (AID 463173)
# Details: S. aureus RN4220 wild type/DeltatarO growth, OD600, 18 h, active compounds read low, screened at 18.75 µg/mL (by protocol)
row,Compound,survival
1,CC(=O)N1CCCc2cc(S(=O)(=O)N3CCCC(C(=O)Nc4ccc(F)cc4F)C3)ccc21 (stereo not given),inactive: 74%
2,Cc1cc(N2CCN(C)CC2)nc2ccc(NC(=O)Nc3ccc(F)cc3)cc12,inactive: 95%
3,COc1ccc(Cn2c(CNC(=O)Cc3ccc(OC)c(OC)c3)nc3cccnc32)cc1,inactive: 82%
4,Brc1ccc(-c2cn3cc(Cc4ccccc4)sc3n2)cc1,inactive: 64%
5,CC1CCN(S(=O)(=O)c2ccc3[nH]ccc3c2)CC1,inactive: 80%
6,CCOC(=O)c1ccc(NC(=O)c2noc3c2CCCC3)cc1,active: 0%
7,Cn1cc(CCCC(=O)NCc2ccc(F)cc2)c2ccccc21,inactive: 81%
8,O=C1NC(NS(=O)(=O)c2ccccc2)(C(F)(F)F)C(=O)N1CCc1ccccc1 (stereo not given),inactive: 78%
9,CCOc1ccc(-c2cc3nc(C4CCN(C(=O)OC(C)(C)C)CC4)c(C(=O)Nc4cccc(Cl)c4C)cn3n2)cc1,inactive: 81%
10,CCOC(=O)CCc1c(C)c2cc3c(c(C)c2oc1=O)OCN(CCc1ccccc1OC)C3,inactive: 49%
11,CCOc1ccc(CCNC(=O)c2ccc3nc(N4CCC(C)CC4)sc3c2)cc1OCC,inactive: 61%
12,CSc1ncc(Cl)c(C(=O)Nc2c(C(=O)c3ccc(C)cc3)oc3ccccc23)n1,inactive: 76%
13,CCC(C)n1c(=O)c2sccc2n2c(CCCC(=O)Nc3ccc(F)cc3)nnc12 (stereo not given),inactive: 79%
14,O=C(Cn1c(=O)n(Cc2ccco2)c(=O)c2sc3ccccc3c21)Nc1ccc(F)cc1F,inactive: 100%
15,COc1ccc(C(=O)N(Cc2ccco2)Cc2ccccc2F)cc1Cl,inactive: 98%
16,O=C1CCC(C(=O)Nc2ccccc2)N1 (stereo not given),inactive: 63%
17,COc1ccc(-c2cc(C(F)(F)F)c(C#N)c(SCC(=O)Nc3cccc(C)c3)n2)cc1,inactive: 59%
18,O=C(NCC(c1ccco1)S(=O)(=O)c1ccc(Cl)cc1)c1ccc(C(F)(F)F)cc1 (stereo not given),active: 17%
19,Cc1ccc(Cn2c(SCc3ccc(C(=O)O)cc3)nc3cccnc32)cc1,inactive: 96%
20,O=C1CCCC(O)=C1C=Nc1cccc(C(F)(F)F)c1,inactive: 74%
21,COc1cccc(CC(=O)Nc2c(C(=O)N3CCN(c4ccccc4)CC3)oc3ccccc23)c1,inactive: 73%
22,CC1CCCCN1CC(=O)N1CCN(C(=O)CN2CCCCC2C)CC1 (stereo not given),inactive: 82%
23,COc1ccc(Cn2c(CCC(=O)Nc3cc(C)cc(C)c3)nc3cccnc32)cc1,inactive: 79%

row,Compound,survival
1,Cc1ccc2c(CN3CCN(c4ccc(Cl)cc4)CC3)cc(=O)oc2c1,inactive: 76%
2,Cc1ccc(CNC(=O)CCCCCn2c(=O)c3sccc3n(CC(=O)C(C)(C)C)c2=O)cc1,inactive: 59%
3,Cc1ccccc1-n1c(SCC(=O)c2ccccc2)nnc1-c1ccc(F)cc1,inactive: 107%
4,Cc1ccc(NC(=O)NC(C)c2c(-n3cccc3)sc(C)c2C)c(C)c1 (stereo not given),inactive: 93%
5,Cc1ccc(SCC(=O)Nc2ccc(O)c(-c3nc4cc(C)ccc4o3)c2)cc1,inactive: 64%
6,COc1cc(OC)cc(C(=O)Nc2cc(NC(=O)c3ccco3)ccc2OC)c1,inactive: 83%
7,COc1ccc(NC(=O)c2ccco2)cc1NC(=O)c1cccc(C)c1OC,active: 37%
8,CCC(c1nnnn1CCc1ccccc1)N(Cc1ccco1)Cc1cc2cc(C)ccc2[nH]c1=O (stereo not given),inactive: 62%
9,COc1ccc(Nc2ncc(C(=O)Nc3cccc(OC)c3)c3ccccc23)cc1,inactive: 106%
10,Cc1ccc(Cl)cc1N(C)C(=O)c1sc2nc3n(c(=O)c2c1C)CCCC3,inactive: 62%
11,O=C1NC(c2ccco2)Nc2ccccc21 (stereo not given),inactive: 85%
12,CCOc1cc(CNC(=O)CSc2n[nH]c(-c3ccccc3)n2)cc(OCC)c1OCC,inactive: 119%
13,Cc1ccc(NC(=O)CSc2nc(=O)n(Cc3ccncc3)c3c2CCC3)cc1Cl,inactive: 80%
14,COc1ccccc1N1CCN(S(=O)(=O)c2ccc(-c3coc(C)n3)cc2)CC1,inactive: 71%
15,Cc1ccc(Cn2c(C3CC3)nc3ccc(N)cc3c2=O)cc1,inactive: 100%
16,CCc1ccccc1NC(=O)CSc1nc2ccccc2n1CC(=O)N(C)C,inactive: 96%
17,Cc1c2cnn(-c3ccccc3)c(=O)c2c(C)n1CC(=O)Nc1ccccc1Br,inactive: 87%
18,c1ccc2[nH]c(CN3CCCCC3)nc2c1,inactive: 59%
19,Cc1ccc(N2CCN(C(=O)c3cn(C)c4ccc(S(=O)(=O)N5CCC(C)CC5)cc4c3=O)CC2C)cc1 (stereo not given),inactive: 105%
20,O=C(C1CCCCC1)N(Cc1cccnc1)c1nc2ccc(Cl)cc2s1,inactive: 84%
21,CCN(C(=O)CSc1nc(-c2ccc(C(C)C)cc2)no1)c1ccccc1,inactive: 84%
22,O=C(Nc1nnc(S(=O)(=O)N2CCCc3ccccc32)s1)c1ccc(Cl)cc1,active: 15%
23,COc1ccc(NC(=O)Cn2c(=O)n(Cc3ccco3)c(=O)c3sc4ccccc4c32)cc1OC,inactive: 79%

row,Compound,survival
1,CC(=O)c1ccc(NC(=O)c2cnc(N3CCCC3)nc2C)cc1,inactive: 78%
2,CCOc1cc(C#N)c(NC(=O)c2ccc(OC)c(S(=O)(=O)N3CCCCC3)c2)cc1OCC,inactive: 59%
3,O=C(Cn1c(=O)n(Cc2ccco2)c(=O)c2ccccc21)Nc1cccc(F)c1,inactive: 96%
4,Cc1ccc(-n2c(-c3ccc(Br)cc3)nc3c(cnn3-c3ccccc3)c2=O)cc1,active: 39%
5,CCc1ccccc1NC(=O)Cn1c(=O)n(-c2ccccc2)c(=O)c2oc3ccccc3c21,inactive: 63%
6,CC(C)(C)c1ccc(C(=O)N2CCC(C(=O)O)CC2)cc1,inactive: 68%
7,COc1ccc(NC(=O)CSc2nncn3c2cc2occc23)c(OC)c1,inactive: 69%
8,NC(=O)c1ccccc1NC(=O)COCC(=O)O,inactive: 55%
9,COc1ccc(-n2nnc(-c3nc(-c4ccc5c(c4)OCO5)no3)c2C)cc1Cl,inactive: 91%
10,Cn1c(CCc2nc3ccccc3[nH]2)nnc1SCC#N,inactive: 82%
11,Cc1nn(-c2ccccc2)c2sc(C(=O)N(Cc3ccco3)C(C)C(=O)NC3CCCCC3)cc12 (stereo not given),active: 60%
12,Cc1ccccc1-c1nc(CS(=O)(=O)CC(=O)NCCCN2CCN(C)CC2)c(C)o1,inactive: 77%
13,CCn1nnnc1SCC(=O)Nc1ccccc1,inactive: 90%
14,COc1ccc(C(=O)NCC(=O)OCc2cc(=O)n3nc(C4CCCCC4)sc3n2)cc1,inactive: 90%
15,CCOC(=O)c1c(C)oc2nc(C)nc(NCCc3ccc(OCC)cc3)c12,inactive: 75%
16,CC1=C(C(=O)NCc2cccc(Cl)c2)C2(CCCCCC2)OC1=O,inactive: 95%
17,CC(=O)Nc1ccc(S(=O)(=O)N2CCC(n3c(C)nc4cccnc43)CC2)cc1,inactive: 67%
18,CCC(C)NC(=O)Cn1c(=O)n(-c2cc(OC)cc(OC)c2)c(=O)c2ccccc21 (stereo not given),inactive: 89%
19,CCOC(=O)c1ccc(NC(=O)CCc2c(C)nc3cc(-c4ccc(OC)cc4OC)nn3c2C)cc1,inactive: 62%
20,CCOCC(=O)Nc1nc2ccccc2s1,inactive: 72%
21,CC(C)Oc1ccc(C(=O)N2CCC(c3nc4ccccc4s3)CC2)cc1,inactive: 49%
22,Cc1ccc(SCCNC(=O)CN(c2cccc(C)c2C)S(C)(=O)=O)cc1,inactive: 57%
23,Cc1nc(N2CCOCC2)c2c(C(=O)N3CCN(c4cccc(C(F)(F)F)c4)CC3)c(C)oc2n1,inactive: 105%

row,Compound,survival
1,Cc1cccc2nc(-c3ccc(Cl)s3)c(Nc3ccc4c(c3)OCCO4)n12,inactive: 93%
2,COc1ccc(NC(=O)C(Cc2ccccc2)NS(=O)(=O)c2ccc3c(c2)oc(=O)n3C)c(OC)c1 (stereo not given),inactive: 149%
3,COc1cc(Cl)c(NC(=O)CN2C(=O)c3cccnc3Sc3ccccc32)c(OC)c1,inactive: 61%
4,CC(C)c1ccc(NC(=O)Cn2nnc(C(=O)NCCc3ccccc3)c2N)cc1,inactive: 115%
5,Cc1nn(-c2ccccc2)c(-n2cccc2)c1C(=O)NCCCN1CCN(c2ccccc2F)CC1,inactive: 63%
6,Cc1ccc(OCC(=O)OCc2cc(=O)n3ccsc3n2)cc1C,inactive: 76%
7,COc1ccccc1N1CCN(c2ncc3c(n2)CCN(Cc2ccccc2C)C3)CC1,inactive: 88%
8,Cc1nc2ccc(S(=O)(=O)NCC(=O)NCc3ccc(Cl)cc3)cc2s1,inactive: 87%
9,COc1ccc(OC(=O)c2cc(-c3ccc4c(c3)OCCO4)on2)cc1,inactive: 101%
10,Cc1ccc(C)c(NC(=O)CSc2cn(CC(=O)N3CCCCC3)c3ccccc23)c1,inactive: 97%
11,CCOc1ccc(NC(=O)Cn2c(=O)nc(-c3ccccc3)c3ccccc32)cc1,inactive: 85%
12,CCOc1ccc(CN(CCc2ccc3c(c2)OCO3)Cc2cc(OC)cc(OC)c2)cc1,inactive: 58%
13,Cc1ccc2c(CNCCc3ccco3)c(C(=O)O)n(Cc3ccc(F)cc3)c2c1,inactive: 59%
14,COc1ccc(NC(=O)CCCc2nnc3n(C(C)C)c(=O)c4sccc4n23)cc1Cl,inactive: 93%
15,CCOc1ccc(NC(=O)Cn2cc(C(=O)C3CC3)c3ccccc32)cc1,inactive: 94%
16,CCN1CCC(N(Cc2ccc(F)cc2)C(=O)Nc2ccc(C)c(F)c2)CC1,inactive: 94%
17,COc1ccc(C(=O)Nc2ccc(-c3nc4cc(C)ccc4o3)c(O)c2)cc1,inactive: 70%
18,O=C(CSc1nccn1Cc1ccco1)Nc1ccc(OC(F)(F)F)cc1,inactive: 77%
19,Cc1cc(=O)[nH]c2nnc(SCc3cccc(C(F)(F)F)c3)n12,inactive: 79%
20,Cc1ccccc1CSc1nc2c([nH]c3ccccc32)c(=O)n1C,inactive: 89%
21,CCOC(=O)c1cc(S(=O)(=O)Nc2ccccc2OCC)[nH]n1,inactive: 72%
